Measurements as given in the supplement of paper PMC10369915.
This is one part of the list. No stated cut-off is given here; in the data, active = 3.2 or more and inactive = the rest. Only a few entries rise above the background.

target: SHP2 C-SH2 domain E139D; assay: enrichment score (SH2-bound / input frequency) (ratio); bacterial display of known human phosphotyrosine sites (pTyr-Var adds point mutants) read by sequencing; higher = stronger binding; tyrosines were phosphorylated by kinases first; details: peptide library: pTyr-Var
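Further: displayed peptides selected on beads carrying the immobilized SH2 domain, with library peptides lacking any tyrosine serving as negative controls.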

Enrichment score, inactive:
AVISVYDLVAF [PSEN1_Y256_V261F] 1.48
SKNSKYNAGST [PSEN1_Y315_E318G] 0.401
SRNSKYNAEST [PSEN1_Y315_K311R] 0.535
SKNYTYIWWLN [PSG4_Y271] 0.883
SENFTYIWWLN [PSG4_Y271_K267E_YF] 0.425
EFITRYIASLK [PSMA7_Y110_YF] 1.71
KKGMIYGGGGG [PSME1_Y249_T244K] 0.725
CPEARYNRSPI [PTAR1_Y42] 0.742
TEDPEYDVQSK [PTCHD3_Y335] 0.384
FEKNVYVDKNL [PTCHD3_Y688] 0.895
FETNVYVDKNL [PTCHD3_Y688_K685T] 1.03
CEDGNYSPEIS [PTDSS1_Y424_T423N] 0.435
VMVCAYLLHRG [PTEN_Y138_I135V] 1.46
EALDFYGEVKT [PTEN_Y155_R159K] 0.912
EALDFYGELRT [PTEN_Y155_V158L] 0.757
PSQRCYVYYYS [PTEN_Y174_R173C] 0.703
PRQRRYVYYYS [PTEN_Y174_S170R] 0.244
PSQRRYVFFFS [PTEN_Y174_YF] 1.02
QRPYVYYYSYL [PTEN_Y176_R173P] 1.35

target: SHP2 C-SH2 domain wild-type; assay: as above; details: peptide library: pTyr-Var

Enrichment score, inactive:
AVISVYDLVAF [PSEN1_Y256_V261F] 1.29
SKNSKYNAGST [PSEN1_Y315_E318G] 0.293
SRNSKYNAEST [PSEN1_Y315_K311R] 0.451
SKNYTYIWWLN [PSG4_Y271] 0.858
SENFTYIWWLN [PSG4_Y271_K267E_YF] 0.625
EFITRYIASLK [PSMA7_Y110_YF] 1.72
KKGMIYGGGGG [PSME1_Y249_T244K] 0.715
CPEARYNRSPI [PTAR1_Y42] 0.804
TEDPEYDVQSK [PTCHD3_Y335] 0.523
FEKNVYVDKNL [PTCHD3_Y688] 0.507
FETNVYVDKNL [PTCHD3_Y688_K685T] 1.01
CEDGNYSPEIS [PTDSS1_Y424_T423N] 0.34
VMVCAYLLHRG [PTEN_Y138_I135V] 1.61
EALDFYGEVKT [PTEN_Y155_R159K] 0.742
EALDFYGELRT [PTEN_Y155_V158L] 0.886
PSQRCYVYYYS [PTEN_Y174_R173C] 0.941
PRQRRYVYYYS [PTEN_Y174_S170R] 0.37
PSQRRYVFFFS [PTEN_Y174_YF] 1.01
QRPYVYYYSYL [PTEN_Y176_R173P] 1.47

target: SHP2 N-SH2 domain L43F; assay: as above; details: peptide library: pTyr-Var

Enrichment score, inactive:
AVISVYDLVAF [PSEN1_Y256_V261F] 1.49
SKNSKYNAGST [PSEN1_Y315_E318G] 0.638
SRNSKYNAEST [PSEN1_Y315_K311R] 0.469
SKNYTYIWWLN [PSG4_Y271] 1.04
SENFTYIWWLN [PSG4_Y271_K267E_YF] 0.55
EFITRYIASLK [PSMA7_Y110_YF] 1.67
KKGMIYGGGGG [PSME1_Y249_T244K] 0.621
CPEARYNRSPI [PTAR1_Y42] 0.82
TEDPEYDVQSK [PTCHD3_Y335] 0.228
FEKNVYVDKNL [PTCHD3_Y688] 0.654
FETNVYVDKNL [PTCHD3_Y688_K685T] 0.916
CEDGNYSPEIS [PTDSS1_Y424_T423N] 0.396
VMVCAYLLHRG [PTEN_Y138_I135V] 1.52
EALDFYGEVKT [PTEN_Y155_R159K] 0.787
EALDFYGELRT [PTEN_Y155_V158L] 0.786
PSQRCYVYYYS [PTEN_Y174_R173C] 0.717
PRQRRYVYYYS [PTEN_Y174_S170R] 0.243
PSQRRYVFFFS [PTEN_Y174_YF] 1.4
QRPYVYYYSYL [PTEN_Y176_R173P] 0.906

target: SHP2 N-SH2 domain T42A; assay: as above; details: peptide library: pTyr-Var

Enrichment score, inactive:
AVISVYDLVAF [PSEN1_Y256_V261F] 1.43
SKNSKYNAGST [PSEN1_Y315_E318G] 0.51
SRNSKYNAEST [PSEN1_Y315_K311R] 0.557
SKNYTYIWWLN [PSG4_Y271] 0.786
SENFTYIWWLN [PSG4_Y271_K267E_YF] 0.483
EFITRYIASLK [PSMA7_Y110_YF] 1.77
KKGMIYGGGGG [PSME1_Y249_T244K] 0.545
CPEARYNRSPI [PTAR1_Y42] 0.616
TEDPEYDVQSK [PTCHD3_Y335] 0.337
FEKNVYVDKNL [PTCHD3_Y688] 0.554
FETNVYVDKNL [PTCHD3_Y688_K685T] 0.641
CEDGNYSPEIS [PTDSS1_Y424_T423N] 0.485
VMVCAYLLHRG [PTEN_Y138_I135V] 1.45
EALDFYGEVKT [PTEN_Y155_R159K] 0.631
EALDFYGELRT [PTEN_Y155_V158L] 0.725
PSQRCYVYYYS [PTEN_Y174_R173C] 0.611
PRQRRYVYYYS [PTEN_Y174_S170R] 0.279
PSQRRYVFFFS [PTEN_Y174_YF] 1.13
QRPYVYYYSYL [PTEN_Y176_R173P] 0.983

target: SHP2 N-SH2 domain T52S; assay: as above; details: peptide library: pTyr-Var

Enrichment score, inactive:
AVISVYDLVAF [PSEN1_Y256_V261F] 1.46
SKNSKYNAGST [PSEN1_Y315_E318G] 0.545
SRNSKYNAEST [PSEN1_Y315_K311R] 0.397
SKNYTYIWWLN [PSG4_Y271] 1.16
SENFTYIWWLN [PSG4_Y271_K267E_YF] 0.496
EFITRYIASLK [PSMA7_Y110_YF] 1.92
KKGMIYGGGGG [PSME1_Y249_T244K] 0.705
CPEARYNRSPI [PTAR1_Y42] 0.605
TEDPEYDVQSK [PTCHD3_Y335] 0.318
FEKNVYVDKNL [PTCHD3_Y688] 0.807
FETNVYVDKNL [PTCHD3_Y688_K685T] 0.743
CEDGNYSPEIS [PTDSS1_Y424_T423N] 0.491
VMVCAYLLHRG [PTEN_Y138_I135V] 1.37
EALDFYGEVKT [PTEN_Y155_R159K] 0.993
EALDFYGELRT [PTEN_Y155_V158L] 0.672
PSQRCYVYYYS [PTEN_Y174_R173C] 0.785
PRQRRYVYYYS [PTEN_Y174_S170R] 0.233
PSQRRYVFFFS [PTEN_Y174_YF] 1.47
QRPYVYYYSYL [PTEN_Y176_R173P] 0.78

target: SHP2 N-SH2 domain wild-type; assay: as above; details: peptide library: pTyr-Var

Enrichment score, inactive:
AVISVYDLVAF [PSEN1_Y256_V261F] 1.55
SKNSKYNAGST [PSEN1_Y315_E318G] 0.541
SRNSKYNAEST [PSEN1_Y315_K311R] 0.579
SKNYTYIWWLN [PSG4_Y271] 0.96
SENFTYIWWLN [PSG4_Y271_K267E_YF] 0.622
EFITRYIASLK [PSMA7_Y110_YF] 1.73
KKGMIYGGGGG [PSME1_Y249_T244K] 0.689
CPEARYNRSPI [PTAR1_Y42] 1.01
TEDPEYDVQSK [PTCHD3_Y335] 0.311
FEKNVYVDKNL [PTCHD3_Y688] 0.979
FETNVYVDKNL [PTCHD3_Y688_K685T] 0.868
CEDGNYSPEIS [PTDSS1_Y424_T423N] 0.64
VMVCAYLLHRG [PTEN_Y138_I135V] 1.91
EALDFYGEVKT [PTEN_Y155_R159K] 0.999
EALDFYGELRT [PTEN_Y155_V158L] 0.99
PSQRCYVYYYS [PTEN_Y174_R173C] 0.9
PRQRRYVYYYS [PTEN_Y174_S170R] 0.342
PSQRRYVFFFS [PTEN_Y174_YF] 0.723
QRPYVYYYSYL [PTEN_Y176_R173P] 1.87
